# Results taken from PMC10699790 (Science Advances, 2023).
# Target: HA-Halo-mGluR2 (rat, UniProt P31421 19-872, Halo tag labeled with CA-SS-Alexa-488)
# Assay: single-molecule pulldown
# Sequence of UniProt P31421 (P31421 19-872): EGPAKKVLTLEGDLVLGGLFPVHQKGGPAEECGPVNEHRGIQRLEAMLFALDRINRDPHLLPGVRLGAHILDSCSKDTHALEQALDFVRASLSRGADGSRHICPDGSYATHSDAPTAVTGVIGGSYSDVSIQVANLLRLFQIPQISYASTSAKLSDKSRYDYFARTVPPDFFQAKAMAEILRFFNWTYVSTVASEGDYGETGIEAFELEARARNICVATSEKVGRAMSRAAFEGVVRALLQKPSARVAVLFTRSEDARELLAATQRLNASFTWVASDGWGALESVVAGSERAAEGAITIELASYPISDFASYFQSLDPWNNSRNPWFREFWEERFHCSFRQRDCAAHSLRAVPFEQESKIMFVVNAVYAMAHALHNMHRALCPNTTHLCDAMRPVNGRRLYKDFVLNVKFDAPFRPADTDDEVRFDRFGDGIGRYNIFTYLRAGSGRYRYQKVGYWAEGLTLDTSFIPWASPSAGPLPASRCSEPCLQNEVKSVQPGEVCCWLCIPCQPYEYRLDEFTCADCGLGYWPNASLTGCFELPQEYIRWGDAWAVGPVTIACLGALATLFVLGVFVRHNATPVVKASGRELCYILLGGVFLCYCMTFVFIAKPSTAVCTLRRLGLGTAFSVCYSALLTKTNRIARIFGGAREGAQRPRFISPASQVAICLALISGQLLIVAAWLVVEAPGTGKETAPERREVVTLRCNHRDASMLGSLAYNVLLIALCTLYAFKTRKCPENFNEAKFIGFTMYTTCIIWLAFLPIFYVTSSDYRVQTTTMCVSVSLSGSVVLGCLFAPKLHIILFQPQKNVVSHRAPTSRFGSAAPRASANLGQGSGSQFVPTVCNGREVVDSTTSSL
binder,measurement,value
"SNAP-mGluR8 without an HA tag (receptor, SNAP tag labeled with SBG-JF646) QEYAHSIRVDGDIILGGLFPVHAKGERGVPCGELKKEKGIHRLEAMLYAIDQINKDPDLLSNITLGVRILDTCSRDTYALEQSLTFVQALIEKDASDVKCANGDPPIFTKPDKISGVIGAAASSVSIMVANILRLFKIPQISYASTAPELSDNTRYDFFSRVVPPDSYQAQAMVDIVTALGWNYVSTLASEGNYGESGVEAFTQISREIGGVCIAQSQKIPREPRPGEFEKIIKRLLETPNARAVIMFANEDDIRRILEAAKKLNQSGHFLWIGSDSWGSKIAPVYQQEEIAEGAVTILPKRASIDGFDRYFRSRTLANNRRNVWFAEFWEENFGCKLGSHGKRNSHIKKCTGLERIARDSSYEQEGKVQFVIDAVYSMAYALHNMHKDLCPGYIGLCPRMSTIDGKELLGYIRAVNFNGSAGTPVTFNENGDAPGRYDIFQYQITNKSTEYKVIGHWTNQLHLKVEDMQWAHREHTHPASVCSLPCKPGERKKTVKGVPCCWHCERCEGYNYQVDELSCELCPLDQRPNMNRTGCQLIPIIKLEWHSPWAVVPVFVAILGIIATTFVIVTFVRYNDTPIVRASGRELSYVLLTGIFLCYSITFLMIAAPDTIICSFRRVFLGLGMCFSYAALLTKTNRIHRIFEQGKKSVTAPKFISPASQLVITFSLISVQLLGVFVWFVVDPPHIIIDYGEQRTLDPEKARGVLKCDISDLSLICSLGYSILLMVTCTVYAIKTRGVPETFNEAKPIGFTMYTTCIIWLAFIPIFFGTAQSAEKMYIQTTTLTVSMSLSASVSLGMLYMPKVYIIIFHPEQNVQKRKRSFKAVVTAATMQSKLIQKGNDRPNGEVKSELCESLETNTSSTKTTYISYSNHSI",stoichiometry N,1
